# Source: PubChem BioAssay AID504832 (National Center for Advancing Translational Sciences (NCATS), 2011)
# In all, about 310,000 compounds went through this assay and about 18,000 (5.8%) were called active. Inconclusive results, whose numbers are uncertain, are shown with a selection of clear calls. Calls follow the shape of the dose curve; as a rule, active = well fitted inhibition curve with a large enough effect; inconclusive = small, poorly fitted or top-dose-only effect, or another doubt; inactive = no such curve, though single readings can be large or run the other way. Potencies of inconclusive entries are left out as doubtful fits.
# Assay: Primary qHTS for delayed death inhibitors of the malarial parasite plastid, 48 hour incubation
# Conditions: P. falciparum luciferase growth in erythrocytes; series mostly up to 28.7 µM; activity change, negative = inhibition: at the top concentration
# In short: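 A one-generation exposure of luciferase-tagged malaria parasites in RPMI 1640/Albumax erythrocyte culture, 37 C and 5% CO2. Inhibition is inferred from decreased luminescence after adding detection reagent.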
# % is scaled to controls: 0 for no effect and ±100 for the full control effect; potency is read from the fitted curve at half-maximal effect; tags tell the direction and shape of the fitted curve.
SMILES,"activity change, negative = inhibition",Potency
Cc1ccc(S(=O)(=O)NNC(=O)C(O)(c2ccccc2C)c2ccccc2C)cc1,inactive: -5.7%,
COc1ccc2c(c1)C(C)=CC(C)(C)N2S(=O)(=O)c1ccc(NC(C)=O)cc1,,"inconclusive [inhibitor, full curve, poor fit]"
Nc1ccc(C2=Nc3cccc4cccc(c34)N2)cc1,,"inconclusive [inhibitor, single point]"
CCN(CC(=O)NC(C)C)Cc1nc2sc3c(c2c(=O)[nH]1)CCC3,,"inconclusive [inhibitor, single point]"
CCn1c(COc2ccccc2C)nnc1SCC(=O)CC(=O)Nc1ccccc1,,active: 10.4 µM
CC(C)C[C@@]12C(=O)N(c3cccc(Cl)c3)C(=O)N1[C@H](c1ccc(Cl)cc1)[C@@H]1C(=O)N(C3CCCCC3)C(=O)[C@@H]12,,"inconclusive [inhibitor, partial curve, poor fit]"
COc1ccccc1N1CCN(C(=O)c2c(-c3c(Cl)cccc3Cl)noc2C)CC1,,active: 10.4 µM
COc1cccc2cc(C(C)=O)oc12,inactive: -8.69%,
CCc1ccc2c(c1)C(c1ccncc1)=NNC(c1ccccc1)=N2,,"inconclusive [inhibitor, single point]"
CCC(=O)N(CC(=O)Nc1sc(C)c(C)c1C(N)=O)Cc1ccc(F)cc1,,"inconclusive [inhibitor, partial curve, poor fit]"
CCOC(=O)C1=C(C)OC(N)=C(C#N)C1c1cc2cc(C)ccc2nc1N1CCCCC1 (stereo not drawn),,"inconclusive [inhibitor, single point]"
O=C(Nc1cccc(O)c1)c1cc(-c2ccc3c(c2)OCO3)on1,inactive: -23.5%,
COc1ccccc1C(=O)N=Nc1c(O)[nH]c2ccc([N+](=O)[O-])cc12,,active: 10.4 µM
CCOC(=O)C1(CC2CCCCO2)CCN(Cc2nc3ccccc3nc2C)CC1 (stereo not drawn),,"inconclusive [inhibitor, single point]"
Clc1ccc(C[n+]2cc(-c3ccccc3)n3c2CCCCC3)c(Cl)c1,,active: 0.738 µM
COc1cccc(NC(=O)c2ccc3c(c2)C(=O)N(CC2CCCO2)C3=O)c1 (stereo not drawn),inactive: 24.2%,
Cc1ccc(CN(Cc2ccccn2)C(=O)Nc2ccc(C)c(C)c2)cc1,,"inconclusive [inhibitor, single point]"
Cc1cccc(C)c1NCc1n[nH]c(=S)n1-c1ccccc1,inactive: 14.3%,
CCOC(=O)/C(=N\Nc1ncnc2ccccc12)c1ccc(C)cc1,inactive: 170%,
COc1ccc(-c2nnn(CC(=O)NC(=O)NC3CCCCC3)n2)cc1OC,,"inconclusive [inhibitor, single point]"
COc1cc2c(cc1OC)[C@H](C)N(C(=S)Nc1ccc(F)cc1)CC2,,"inconclusive [inhibitor, partial curve, poor fit]"
Cn1c(SCC(=O)N2CC(=O)Nc3ccccc32)nc2ccccc2c1=O,,"inconclusive [inhibitor, single point]"
COc1ccc(-c2noc(CN(C(=O)c3cccs3)C(C)C)n2)cc1,,"inconclusive [inhibitor, full curve, poor fit]"

SMILES,"activity change, negative = inhibition",Potency
COc1ccc(NC(=O)CN(C)S(=O)(=O)c2cccs2)cc1,inactive: 42.7%,
Cc1[nH]nc(-c2ccc(OCc3cnn(-c4ccccc4)c3)cc2O)c1Oc1ccccc1F,,"inconclusive [inhibitor, partial curve, poor fit]"
CCOC(=O)CN(C(=O)CSc1nnc(CNc2ccc(F)cc2)o1)c1ccccc1,inactive: -23.6%,
CCCSc1nnc(NC(=O)CCc2ccccc2)s1,inactive: 14.9%,
Cc1cc(C)nc(Nc2ccc(N3CCCC3)cc2)n1,,"inconclusive [inhibitor, single point]"
COc1ccc2[nH]c(C)c(C(=O)CN(C)C)c2c1,,"inconclusive [inhibitor, single point]"
O=C(c1cnc2sccn2c1=O)N1CCCc2ccccc21,inactive: 20.8%,
O=C(CSc1nnc(-c2ccncc2)o1)NC1C2CC3CC(C2)CC1C3 (stereo not drawn),,"inconclusive [inhibitor, partial curve, poor fit]"
CCn1c(SCC(=O)N2CCCc3ccccc32)nnc1-c1ccoc1C,,"inconclusive [inhibitor, partial curve, poor fit]"
Cc1cc(C(=O)Nc2ccc3c(c2)CCC3)c2ccccc2n1,,"inconclusive [inhibitor, single point]"
COC(=O)[C@]1(C)N[C@H](c2ccc(SC3CCCCC3)c(OC)c2)[C@@H]2C(=O)N(C)C(=O)[C@@H]21,,"inconclusive [inhibitor, single point]"
COc1cccc(-n2ccnc2SCC(=O)Nc2cc(OC)ccc2OC)c1,inactive: 11.6%,
CC(=O)Nc1ccc(S[C@@H](CCN2CC[C@H](C(C)(C)C)CCC2=O)c2ccccc2)cc1,,"inconclusive [inhibitor, full curve]"
CSc1ccc(-c2sc(Nc3ccccc3)n[n+]2-c2ccc(F)cc2)cc1,,"inconclusive [inhibitor, partial curve, poor fit]"
CCCc1ccc(C(=O)/C=C/N(C)C)cc1,inactive: 290%,
CC(=O)N1c2ccc(S(=O)(=O)N3CCCCC3)cc2CC1C(=O)Nc1cccc(C)c1 (stereo not drawn),,"inconclusive [inhibitor, partial curve]"
CCC(C)(C)NC(=O)CN(C(=O)CCC(=O)Nc1nccs1)c1ccc2c(c1)OCCO2,,"inconclusive [inhibitor, full curve]"
Nc1ncc(Br)cc1S(=O)(=O)NCCC(=O)N1CCN(c2ccccn2)CC1,,active: 11.7 µM
COc1cc(/C=N/Nc2nc(C)nc3c2cnn3-c2ccccc2)ccc1O,,"inconclusive [inhibitor, single point]"
Cc1c(Br)c([N+](=O)[O-])nn1C(C)C(=O)Nc1ccc2c(c1)OCO2 (stereo not drawn),,"inconclusive [inhibitor, single point]"
COCCN(C(=O)COC(=O)/C=C/c1ccccc1Cl)c1c(N)n(Cc2ccccc2)c(=O)[nH]c1=O,,"inconclusive [inhibitor, single point]"
CCOC(=O)CSc1nnc(CNC(=O)c2cccs2)n1-c1ccccc1,,"inconclusive [inhibitor, single point]"
CN(Cc1ccccc1)C(=O)c1[nH]cnc1C(=O)N[C@@H](CCCCNC(=O)OC(C)(C)C)C(=O)OC(C)(C)C,,"inconclusive [inhibitor, full curve]"

SMILES,"activity change, negative = inhibition",Potency
CCCn1c(=N)n(CC(O)COc2cccc(C)c2)c2ccccc21 (stereo not drawn),,active: 10.4 µM
CC[N+](C)(CC)CCCCOc1ccc2c(c1)C(=O)c1cc(OCCCC[N+](C)(CC)CC)ccc1-2,,"inconclusive [inhibitor, full curve]"
O=C(Nc1ccc2nc(-c3cccs3)[nH]c2c1)c1ccco1,inactive: 44.4%,
Cc1ccc(N2CC(C(=O)NCCS(=O)(=O)N3CCN(c4ccccc4)CC3)CC2=O)cc1C (stereo not drawn),,"inconclusive [inhibitor, single point]"
COc1ccc(CC2SC(=Nc3ccc(F)cc3)NC2=O)cc1 (stereo not drawn),,active: 2.94 µM
COC(=O)c1c(C(=O)OC)n(CCCN)c2ccc(C)cc12,,"inconclusive [inhibitor, single point]"
CCOc1ccc(N/C=C/C(=O)c2ccc(OC)c(OC)c2)cc1,inactive: 59.3%,
COc1ccc(/C=N/NS(=O)(=O)c2ccc(F)cc2)cc1CN1CCSCC1,inactive: -15.9%,
O=C(NNC(=O)c1ccccc1[N+](=O)[O-])c1csc(N2CCOCC2)n1,inactive: 22.7%,
O=C(c1cnn(C(=O)COc2ccccc2F)c1)c1cc(F)ccc1O,,"inconclusive [inhibitor, full curve, poor fit]"
Cc1nc2ncnn2c(N2CCCC(C(=O)Nc3ccc4c(c3)CCC4)C2)c1C (stereo not drawn),,active: 5.22 µM
O=c1[nH]cc(C(F)(F)F)cc1NS(=O)(=O)c1ccccc1[N+](=O)[O-],,"inconclusive [inhibitor, partial curve, poor fit]"
Cc1nc(/C=C/c2ccccc2)cc(/C=C/c2ccccc2)n1,,"inconclusive [inhibitor, single point]"
O=C(NCCc1csc(-c2ccc(Cl)cc2)n1)c1ccco1,inactive: -0.74%,
COc1ccc(S(=O)(=O)N(Cc2ccccc2)c2ccccc2C(=O)Nc2ccccc2C(=O)NCc2ccco2)cc1,,active: 13.1 µM
O=C(COc1ccccc1Cl)NNC(=O)C1CCCO1 (stereo not drawn),inactive: 11.1%,
CCc1ccccc1N1CCN(S(=O)(=O)c2ccc(F)c(C)c2)CC1,,"inconclusive [inhibitor, single point]"
O=C(c1ccccc1)C1CN(Cc2ccccc2)CCC1(O)c1ccccc1 (stereo not drawn),,"inconclusive [inhibitor, single point]"
COC(=O)C1C/C(=N/NS(=O)(=O)c2ccc(C)cc2)CS1 (stereo not drawn),inactive: 21.9%,
Cc1ccc(-c2csc(N(CCc3ccccc3)C(=O)COc3ccccc3)n2)cc1,,"inconclusive [inhibitor, partial curve, poor fit]"
O=C(N/N=C/C=C\c1ccccc1[N+](=O)[O-])c1cc(-c2ccccc2)nc2ccccc12,,"inconclusive [inhibitor, single point]"
O=C(Nc1ccc(N2CCN(c3ccc(C(F)(F)F)cn3)CC2)nc1)c1cccs1,,"inconclusive [inhibitor, full curve, poor fit]"
